These are yes or no findings as the source states them, for the method shown. Binding seen in cells or lysates may run through a third protein. Some entries that bind do so weakly or less than the wild type.

Chains of the proteins cited; added tags and fusions are not shown. Lines headed by an entry give the natural chain unless they say otherwise; changes in a name come on top. A line that says so, or that is headed by a name, gives the form on record, which may keep a tag or linker.
UniProt Q8NFD2: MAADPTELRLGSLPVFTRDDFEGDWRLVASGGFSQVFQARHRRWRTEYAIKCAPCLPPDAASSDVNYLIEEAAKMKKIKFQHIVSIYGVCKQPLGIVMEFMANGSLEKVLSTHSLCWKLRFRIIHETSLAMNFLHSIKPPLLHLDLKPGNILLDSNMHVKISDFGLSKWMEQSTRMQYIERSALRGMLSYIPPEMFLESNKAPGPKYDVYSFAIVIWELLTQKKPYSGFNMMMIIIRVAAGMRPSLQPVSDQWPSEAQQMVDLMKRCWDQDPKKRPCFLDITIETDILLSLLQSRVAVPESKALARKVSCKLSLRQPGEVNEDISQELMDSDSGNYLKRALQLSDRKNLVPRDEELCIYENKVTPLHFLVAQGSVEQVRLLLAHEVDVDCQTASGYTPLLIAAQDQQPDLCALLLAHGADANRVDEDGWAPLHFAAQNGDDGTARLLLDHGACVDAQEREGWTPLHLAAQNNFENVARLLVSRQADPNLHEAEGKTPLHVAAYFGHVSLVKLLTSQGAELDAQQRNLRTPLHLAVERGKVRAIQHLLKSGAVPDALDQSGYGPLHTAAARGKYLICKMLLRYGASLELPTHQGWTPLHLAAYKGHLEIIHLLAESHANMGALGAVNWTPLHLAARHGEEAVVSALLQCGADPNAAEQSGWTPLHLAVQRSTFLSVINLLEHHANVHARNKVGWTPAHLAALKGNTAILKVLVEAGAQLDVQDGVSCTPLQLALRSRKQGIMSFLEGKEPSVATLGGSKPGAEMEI
full-length ANKK1^Thr239 (fl-ANKK1^Thr239), transfected in HEK293T (Q8NFD2, form named): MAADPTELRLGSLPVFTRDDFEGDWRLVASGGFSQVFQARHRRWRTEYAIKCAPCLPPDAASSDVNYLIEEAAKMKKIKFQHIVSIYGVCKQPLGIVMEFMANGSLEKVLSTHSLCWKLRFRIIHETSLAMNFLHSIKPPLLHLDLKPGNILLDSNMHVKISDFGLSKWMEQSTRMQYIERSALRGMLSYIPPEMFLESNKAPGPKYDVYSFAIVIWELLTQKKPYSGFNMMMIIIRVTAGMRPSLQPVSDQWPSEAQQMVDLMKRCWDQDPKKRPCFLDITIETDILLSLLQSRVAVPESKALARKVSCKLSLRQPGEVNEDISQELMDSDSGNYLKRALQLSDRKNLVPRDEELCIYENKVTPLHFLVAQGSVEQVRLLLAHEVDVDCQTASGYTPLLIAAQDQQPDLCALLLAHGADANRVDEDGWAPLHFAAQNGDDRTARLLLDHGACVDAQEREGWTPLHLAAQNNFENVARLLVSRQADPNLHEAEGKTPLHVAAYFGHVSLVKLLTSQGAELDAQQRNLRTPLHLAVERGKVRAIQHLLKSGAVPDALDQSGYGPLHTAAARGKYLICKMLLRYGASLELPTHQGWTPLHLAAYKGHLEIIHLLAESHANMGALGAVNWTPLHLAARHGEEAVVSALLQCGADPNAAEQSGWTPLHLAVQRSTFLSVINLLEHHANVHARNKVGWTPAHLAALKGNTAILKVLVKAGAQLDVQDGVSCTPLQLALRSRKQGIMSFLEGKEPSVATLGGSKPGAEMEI
UniProt Q8IW93: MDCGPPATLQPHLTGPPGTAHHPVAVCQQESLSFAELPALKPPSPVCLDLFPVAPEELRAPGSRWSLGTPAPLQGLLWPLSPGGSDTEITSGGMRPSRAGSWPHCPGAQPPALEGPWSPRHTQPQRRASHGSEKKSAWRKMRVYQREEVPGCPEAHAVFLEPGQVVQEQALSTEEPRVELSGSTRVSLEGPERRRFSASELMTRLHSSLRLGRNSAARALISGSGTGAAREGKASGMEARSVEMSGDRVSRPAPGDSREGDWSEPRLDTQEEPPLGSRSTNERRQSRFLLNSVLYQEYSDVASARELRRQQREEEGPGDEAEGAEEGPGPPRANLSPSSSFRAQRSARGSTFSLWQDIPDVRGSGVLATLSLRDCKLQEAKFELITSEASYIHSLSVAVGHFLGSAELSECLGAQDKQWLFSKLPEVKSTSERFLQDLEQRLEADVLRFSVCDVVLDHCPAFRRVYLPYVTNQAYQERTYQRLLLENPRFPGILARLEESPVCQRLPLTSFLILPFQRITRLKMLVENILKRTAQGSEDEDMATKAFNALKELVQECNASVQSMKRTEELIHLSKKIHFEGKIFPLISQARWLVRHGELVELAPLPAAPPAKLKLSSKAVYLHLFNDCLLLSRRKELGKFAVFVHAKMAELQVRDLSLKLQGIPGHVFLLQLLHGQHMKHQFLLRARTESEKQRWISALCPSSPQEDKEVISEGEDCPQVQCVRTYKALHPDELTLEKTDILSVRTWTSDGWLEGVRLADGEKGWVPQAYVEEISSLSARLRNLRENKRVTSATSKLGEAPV
UniProt P60953: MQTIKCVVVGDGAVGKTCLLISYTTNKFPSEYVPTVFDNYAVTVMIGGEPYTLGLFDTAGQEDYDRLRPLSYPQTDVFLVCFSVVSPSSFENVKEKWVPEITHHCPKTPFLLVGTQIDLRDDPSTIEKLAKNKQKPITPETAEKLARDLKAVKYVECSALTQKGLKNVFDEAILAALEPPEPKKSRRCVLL
UniProt P61586: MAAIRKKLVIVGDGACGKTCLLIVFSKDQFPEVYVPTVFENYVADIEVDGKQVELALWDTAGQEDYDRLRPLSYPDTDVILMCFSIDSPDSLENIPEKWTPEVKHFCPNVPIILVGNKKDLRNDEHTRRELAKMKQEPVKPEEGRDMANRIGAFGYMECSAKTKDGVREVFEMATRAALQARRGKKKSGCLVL

Assay [1] deals with full-length ANKK1^Thr239 in fusion with V5, stably expressed in SH-SY5Y (scfl-ANKK1^Thr239) (human) (UniProt Q8NFD2). Briefly: co-IP; SH-SY5Y lines stably expressing fl-ANKK1^Thr239 after differentiation (Figure S9B,C right).
For assay [2] the target is unchanged. Briefly: co-IP; undifferentiated SH-SY5Y lines stably expressing fl-ANKK1^Thr239 or fl-ANKK1^Arg51 (Figure S9A, B left, C left).
Assay [3] shares this target. Briefly: proximity ligation; PLA in SH-SY5Y lines with fl-ANKK1^Thr239, undifferentiated and differentiated (Figure S9D–F).
In assay [4] the target is RhoGEF19 (WGEF), endogenous in SH-SY5Y cells (human (endogenous in SH-SY5Y)) (UniProt Q8IW93). Briefly: proximity ligation; PLA of endogenous proteins in shMOCK, shANKK1 and shFARP1 knockdown SH-SY5Y lines, undifferentiated and 48 h serum-starved (0% FBS) or RA-treated.
In assay [5] the target is full-length ANKK1^Thr239 in fusion with V5, stably expressed in SH-SY5Y (scfl-ANKK1^Thr239) (human) (UniProt Q8NFD2). The assay can be described thus: co-IP; scMOCK and scfl-ANKK1^Thr239 SH-SY5Y cell lines during proliferation.
The target of assay [6] is full-length ANKK1^Thr239 (fl-ANKK1^Thr239), transfected in HEK293T (human) (UniProt Q8NFD2). The assay can be described thus: co-IP; HEK293T cells transfected with FARP1 and fl-ANKK1^Thr239 constructs.

As to “Cdc42 of SH-SY5Y cells (from UniProt P60953 1-191)”, the binding result in assay [1], in assay [2] and in assay [3] was “no binding” in each case.
Consider “RhoA of SH-SY5Y cells (from UniProt P61586 1-193)”, for which the binding entry in assay [1] is reported as “binds”; in assay [2] it was “binds weakly”; in assay [3] it was “binds”; in assay [4], “binds”.
With “RhoGEF19 (WGEF), endogenous in SH-SY5Y cells (from UniProt Q8IW93 1-802)”, the binding entry in assay [5] is reported as “binds”.

B1: FARP1 construct, transfected in HEK293T (protein, UniProt Q9Y4F1 1-1045)
chain: MGEIEQRPTPGSRLGAPENSGISTLERGQKPPPTPSGKLVSIKIQMLDDTQEAFEVPQRAPGKVLLDAVCNHLNLVEGDYFGLEFPDHKKITVWLDLLKPIVKQIRRPKHVVVKFVVKFFPPDHTQLQEELTRYLFALQVKQDLAQGRLTCNDTSAALLISHIVQSEIGDFDEALDREHLAKNKYIPQQDALEDKIVEFHHNHIGQTPAESDFQLLEIARRLEMYGIRLHPAKDREGTKINLAVANTGILVFQGFTKINAFNWAKVRKLSFKRKRFLIKLRPDANSAYQDTLEFLMASRDFCKSFWKICVEHHAFFRLFEEPKPKPKPVLFSRGSSFRFSGRTQKQVLDYVKEGGHKKVQFERKHSKIHSIRSLASQPTELNSEVLEQSQQSTSLTFGEGAESPGGQSCRRGKEPKVSAGEPGSHPSPAPRRSPAGNKQADGAASAPTEEEEEVVKDRTQQSKPQPPQPSTGSLTGSPHLSELSVNSQGGVAPANVTLSPNLSPDTKQASPLISPLLNDQACPRTDDEDEGRRKRFPTDKAYFIAKEVSTTERTYLKDLEVITSWFQSTVSKEDAMPEALKSLIFPNFEPLHKFHTNFLKEIEQRLALWEGRSNAQIRDYQRIGDVMLKNIQGMKHLAAHLWKHSEALEALENGIKSSRRLENFCRDFELQKVCYLPLNTFLLRPLHRLMHYKQVLERLCKHHPPSHADFRDCRAALAEITEMVAQLHGTMIKMENFQKLHELKKDLIGIDNLVVPGREFIRLGSLSKLSGKGLQQRMFFLFNDVLLYTSRGLTASNQFKVHGQLPLYGMTIEESEDEWGVPHCLTLRGQRQSIIVAASSRSEMEKWVEDIQMAIDLAEKSSSPAPEFLASSPPDNKSPDEATAADQESEDDLSASRTSLERQAPHRGNTMVHVCWHRNTSVSMVDFSIAVENQLSGNLLRKFKNSNGWQKLWVVFTNFCLFFYKSHQDNHPLASLPLLGYSLTIPSESENIQKDYVFKLHFKSHVYYFRAESEYTFERWMEVIRSATSSASRPHVLSHKESLVY
In the case of B1, the binding result in assay [6] is reported as “binds”.

Values taken from PMC11477271.
